From US20030022345A1 (Human Genome Sciences, published 2003)

Biological target: T1, HA-La autoantigen (UniProt P05455 1-408)
T1 construct: not shown: HA tag
T1 sequence (looked up): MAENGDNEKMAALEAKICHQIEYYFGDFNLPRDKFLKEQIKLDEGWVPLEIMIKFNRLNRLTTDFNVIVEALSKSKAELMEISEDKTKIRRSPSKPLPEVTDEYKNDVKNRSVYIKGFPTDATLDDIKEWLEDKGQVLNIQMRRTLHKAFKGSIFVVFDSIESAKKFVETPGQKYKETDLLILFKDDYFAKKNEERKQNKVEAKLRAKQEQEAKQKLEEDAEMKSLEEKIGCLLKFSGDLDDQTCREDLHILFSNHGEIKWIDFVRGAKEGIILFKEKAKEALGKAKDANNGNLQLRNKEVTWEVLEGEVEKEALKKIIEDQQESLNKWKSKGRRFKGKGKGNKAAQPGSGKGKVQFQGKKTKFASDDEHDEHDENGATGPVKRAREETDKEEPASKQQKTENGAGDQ
Experiment: anti-HA co-immunoprecipitation from HeLa extracts, Western blot
Protocol: After transfection, HeLa and COS-1 cells were cultured for 16 hours and 48 hours, respectively, and then labeled with [³⁵S] methionine(100 μCi/ml) for 1 hour in 3 cm dishes. Cells were lysed in 0.5 ml buffer A (150 mM NaCl, 1% NP-40, 0.1 % deoxycholate, 1 mM phenylmethylsulfonyl fluoride (PMSF), 1mM dithiothreitol (DTT), 50 mM Tris-HCl, pH 7.4). After centrifugation, the supernatant was mixed with 2 μg of anti- HA antibody (12CA5) for 6 hours in the cold room at 4° C. Protein G sepharose (30 ml of 50% slurry) was added and the mixture was incubated for 2 hours. After washing with buffer A (1 ml, three times), immunoprecipitates were collected by centrifugation and proteins were eluted with Laemmli buffer for SDS-10% polyacrylamide gel electrophoresis (SDS-PAGE). For co-immunoprecipitation experiments, transfected HeLa cells (6 cm dish) were lysed in 1 ml buffer B (100 mM KCl, 0.5 mM EDTA, 20 mM HEPES-KOH pH 7.6, 0.4% NP-40, 20 % glycerol, 1 mM DTT, 1 mM PMSF, 5 μg/ml pepstatin, 5 μg/ml leupeptin). After centrifugation, an aliquot (0.5 ml) was mixed with anti-HA antibody (2 μg).
The N-terminal third of eIF4G, to which eIF4E binds (Lamphear, B., supra; Mader, S., et al., supra), bears no similarity to p97. Therefore, no canonical eIF4E-binding site (Mader, S., et al., supra) is found in p97. […] Thus, it is predicted that p97 would bind to eIF4A and eIF3, but not to eIF4E. […]

B1: eIF4A (endogenous in HeLa cells) (enzyme)
chain: not shown
binding result: no binding
